In this test the target is T1, soluble recombinant human IL-1RI (corresponding to the extracellular domain of IL-1RI) (human, UniProt P14778 18-336).
T1 construct: extracellular domain; also called interleukin-1 receptor I; IL-1R1 receptor
T1 sequence (looked up): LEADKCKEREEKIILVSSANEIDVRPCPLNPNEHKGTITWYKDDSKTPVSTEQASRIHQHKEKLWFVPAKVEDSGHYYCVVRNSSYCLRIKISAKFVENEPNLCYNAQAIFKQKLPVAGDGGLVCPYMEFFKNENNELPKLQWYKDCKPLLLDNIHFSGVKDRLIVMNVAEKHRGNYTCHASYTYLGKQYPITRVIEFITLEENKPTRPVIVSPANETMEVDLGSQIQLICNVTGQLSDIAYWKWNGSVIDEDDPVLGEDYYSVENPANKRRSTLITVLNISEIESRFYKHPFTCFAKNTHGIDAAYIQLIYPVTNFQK
In words: Kd to the IL-1R1 receptor as listed in Table 15; method not restated, values are the SPR values of Table 7 rounded.

In general, Kd refers to a measure of binding affinity in units of concentration.

B1: IL-1Ra (human) (ligand)
chain: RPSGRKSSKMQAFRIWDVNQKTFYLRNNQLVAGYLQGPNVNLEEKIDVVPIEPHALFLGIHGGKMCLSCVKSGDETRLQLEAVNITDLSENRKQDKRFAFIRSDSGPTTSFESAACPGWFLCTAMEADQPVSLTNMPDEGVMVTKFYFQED
notes: also called interleukin-1 receptor antagonist
B1: the Kd amounted to 0.33 nM.

The values are drawn from US20140341843A1 (ELEVEN BIOTHERAPEUTICS, published 2014).
